Reference: PubChem BioAssay AID1508624 (National Center for Advancing Translational Sciences (NCATS), 2021)
Out of some 48,000 compounds screened, about 120 (0.25%) were called active. Inconclusive results (about 4%) are left out. The call rests on the fitted dose curve; in most records, active means well fitted activation curve with a large enough effect; inconclusive means small, poorly fitted or top-dose-only effect, or another doubt; inactive means no such curve, though single readings can be large or run the other way. The list shows a part of the results.

test: Primary qHTS for Identification of Small Molecule Activators of Huntingtin-Antisense Promoter Activity; conditions: HEK293 HTT-AS promoter firefly luciferase reporter, 24 h; series mostly up to 57.5 µM; activity change, positive = activation: at the top concentration; further: nearly all actives have a fitted effect of over 55% in size
Procedure, shortened: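 Luminescence was read after Dual-Glo reagent and a 10 min room-temperature incubation. Values were normalized to vehicle (0% activity) and zero RLU (-100% activity). Reporter HEK293 cells had been exposed to compounds (up to 57.5 uM final) for 24 h.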

Activity change, positive = activation, inactive:
Cc1ccc2oc(-c3ccc(NC(=O)c4cccc(F)c4)c(C)c3)nc2c1 -20.8%
COc1ccc(NC(=O)c2cc(C)nc3c2c(C)nn3-c2cccc(Cl)c2C)c(OC)c1 -19.7%
CC(=O)N1c2c(cc(Br)cc2S(=O)(=O)NCc2ccccc2Cl)CC1C (configuration not stated) -22.1%
CN(C)CCOc1ccccc1Cc1ccccc1 -6.48%
COc1cc(Cl)c(NC(=O)CN(C)S(=O)(=O)c2ccc3c(c2)CCCC(=O)N3)c(OC)c1 -29%
COc1cc(NC(=O)N2CCC(CN3CCc4ccccc4C3)CC2)cc(OC)c1 -11.9%
CCOc1ccc(OCC)c(NC(=O)c2csc3c2CCCC3)c1 -3.75%
O=C1COc2cc(S(=O)(=O)CCC(=O)N3CCN(c4ccccc4)CC3)c(Cl)cc2N1 -24.8%
Cc1ccc(S(=O)(=O)NCCc2nnc3ccc(SCC(=O)Nc4ccc(OC(F)(F)F)cc4)nn23)cc1 -14.3%
CCCc1ccc(-c2ccc(C(=O)Oc3ccc(Br)cc3)cc2)nc1 -2.5%
CCOc1ccc(NC(=O)Cn2c(=O)c(CNc3ccccc3)cc3cc4c(cc32)OCCO4)cc1 -12.3%
COC(=O)c1ccc(CSc2nc3c([nH]c4ccccc43)c(=O)n2-c2cc(C)cc(C)c2)o1 -30.5%
N=C(N)N1CCc2ccccc2C1 -12.7% [at 6 µM, percent change from vehicle, -100% = no light]
CN(C(=O)Cn1ncc2c1-c1ccccc1OC2)c1ccc(Br)cc1 -21.3%
CCCCCn1c(CNC(=O)c2ccc(F)cc2)nc2ccccc21 -8.09%
CCS(=O)(=O)c1cccc(C(=O)N2CCN(c3nc4c(C)ccc(Cl)c4s3)CC2)c1 -47.9%
CCOC(=O)c1c(C)[nH]c(C)c1S(=O)(=O)N1CCC(C(=O)NCc2ccc(N(C)C)cc2)CC1 -4.09%
CN(C)C1(CNC(=O)COc2ccc(C(C)(C)C)cc2)CCCCC1 -7.28%
O=C(Nc1ccc2c(c1)OCO2)c1cc(-c2ccc(Cl)cc2)on1 -1.31%
CCCCCn1c(-c2cccc(C)c2)nc2ccccc21 -21.5%
COc1ccccc1OCC(=O)Nc1c(C(=O)c2ccc(C)cc2)oc2ccccc12 -8.63%
COc1ccccc1CNS(=O)(=O)c1ccc(N2CCCCS2(=O)=O)cc1 -9.31%
COc1ccc(OC)c(CCNC(=O)C(C)n2c(C)c3cnn(-c4ccccc4)c(=O)c3c2C)c1 (configuration not stated) -11%
Cc1ccc(C(=O)N(CCCN)[C@@H](c2nc3cc(Cl)ccc3c(=O)n2Cc2ccccc2)C(C)C)cc1 -29%
COc1ccc(Cl)cc1C(=O)Nc1c2c(nn1-c1ccc(Cl)cc1)CS(=O)(=O)C2 -3.37%
Cc1cc(C)cc(-n2ccnc(NCc3ccc(F)cc3)c2=O)c1 -20.3%
COc1ccccc1CNS(=O)(=O)c1ccc2c(c1)CC(C)N2C(C)=O (configuration not stated) -35.3%
O=C(NCc1ccccc1)c1ccc(CNS(=O)(=O)c2ccc(Br)cc2)cc1 -17.8%
CC1CCN(S(=O)(=O)c2ccc3c(c2)N(CC(=O)NC(C)c2ccccc2)C(=O)CS3)CC1 (configuration not stated) -26%
CC(C)Cn1cc(NC(=O)N2CCN(c3cccc(Cl)c3)CC2)c2ccccc2c1=O -6.21%
Cc1ccc(C)c(N2CCN(S(=O)(=O)c3ccc4[nH]c5c(c4c3)CCCCC5)CC2)c1 -29.6%
CCc1ccc(NC(=O)N2CCOc3ccc(Cl)cc32)cc1 24.7%
COc1cc(Cl)c(S(=O)(=O)NCCc2c(C)[nH]c3c(C)cccc23)cc1Cl -27.1%
O=C(O)c1cc(=O)c2ccccc2o1 -0.832%
CCCn1c(=O)c2[nH]c(-c3cnn(Cc4cccc(C(F)(F)F)c4)c3)nc2n(CC)c1=O -0.363%
Cc1ccc(-c2nc(NC(=O)CSc3cc(C)c4ccccc4n3)ns2)cc1 -2.57%
Cc1cc(C)c(NC(=O)c2cc(S(=O)(=O)N3CCC4(CC3)OCCO4)ccc2F)c(C)c1 4.16%
CCCCN(CC)C(=O)CSc1nc2n[nH]c(C)c2c(=N)n1-c1cccc(Cl)c1 -47.5%
CCOC(=O)c1[nH]c(C)c(CCC(=O)N2CCN(c3cccc(OC)c3)CC2)c1C -11.4%
Cc1ccc(-c2noc(-c3ccccc3NC(=O)c3ccccc3)n2)cc1 21.6%
CCOc1ccc(NC(=O)Cn2ncc3c2-c2cc(C)ccc2OC3)cc1 -20.7%
CCC(=O)N1CCc2cc(Br)cc(S(=O)(=O)CCC(=O)NCc3ccccc3OC)c21 10.8%
COc1ccccc1C(=O)NCCn1cc(SCC(=O)Nc2ccccc2F)c2ccccc21 -44.4%
Cc1ccc(CNC(=O)C(=O)Nc2c3c(nn2-c2ccccc2)CSC3)cc1 -22.5%
COc1ccc(OC)c(NS(=O)(=O)c2ccc3c(c2)C(C)(C)C(=O)N3C)c1 -11.7%
Cc1ccc(C)c(NC(=O)N2CCN(C(=O)c3nsc4ccccc34)CC2)c1 -28.2%
COc1cc(Cl)c(C)cc1NC(=O)C1CCN(c2nc3ccccc3n3cccc23)CC1 -31.8%
COc1ccc(CNC(=O)c2cc3cc4cc(OC)ccc4nc3o2)cc1 11.9%
COc1cccc(CNC(=O)c2ccc3c(c2)c(C)c(C)n3Cc2ccccc2)c1 -9.98%
Cc1nnc(N2CCC(C(=O)NC3CCCCC3)CC2)c2nn(-c3ccccc3)c(C)c12 -7.82%
CCOc1ccccc1N(CC)C(=O)Cn1ncc2c([nH]c3ccccc32)c1=O -46.2%
Clc1cccc(-c2ccc(CNCCSc3nnnn3-c3ccccc3)o2)c1 -9.42%
O=C(c1ccccc1)N1CCN(CCc2ccncc2)CC1 -19.5%
CC(=O)c1ccc(NC(=O)c2nc3ccccc3nc2N2CCCCC2)cc1 -10.3%
COc1ccc(Cn2c(C(=O)O)c(CNCc3ccccc3F)c3ccc(OC)cc32)cc1 -28.6%
COC(=O)c1ccc(C2c3c(-c4ccccc4O)n[nH]c3C(=O)N2Cc2cccnc2)cc1 (configuration not stated) 9.09%
CCCSc1ncc(Cl)c(C(=O)Nc2ccc(S(=O)(=O)N(C)c3ccccc3)cc2)n1 -37.3%
CCN(CCCNC(=O)Cn1ncc2c3ccccc3n(C)c2c1=O)Cc1ccccc1 -11.5%
CC1CCCN(C(=O)CSc2c3c(nc4cc(Cl)ccc24)CCCC3)C1 (configuration not stated) -38.5%
CCc1ccc(NC(=O)CSc2nc(=O)n(Cc3ccccn3)c3c2CCC3)cc1 -35.7%
O=C(Nc1nnc(S(=O)(=O)N2CCCc3ccccc32)s1)c1cccc(Cl)c1 -91.3%
COc1cccc(C2C(C(=O)Nc3ccc(C)cc3C)=C(C)Nc3c(C(=O)Nc4ccccc4)cnn32)c1 (configuration not stated) -20.1%
CC(C)OC(=O)[C@H](C)N[P@](=O)(OC[C@H]1O[C@@H](n2ccc(=O)[nH]c2=O)[C@](C)(F)[C@H]1O)Oc1ccccc1 -10.5%
NS(=O)(=O)c1cc(C(=O)O)c(NCc2ccco2)cc1Cl
COc1ccc(NC(=O)c2cc(S(=O)(=O)N3CCOCC3)ccc2OC)cc1 10.7%
CCn1nnc2c(N3CCOCC3)nc(-c3ccc(NC(=O)Nc4ccc(C(=O)N5CCN(C)CC5)cc4)cc3)nc21 -22.6%
CCc1cccc(C)c1NS(=O)(=O)c1c(C(=O)N2CCC(C)CC2)c(C)n(C)c1C -23.6%
Oc1ccc(Cl)cc1Cc1cc(Cl)ccc1O -94.1%
COc1ccc(S(=O)(=O)N2CCC(C(=O)Nc3ccc(Oc4ccccc4)cc3)CC2)cc1 -18%
COc1cccc(-n2c(=O)c3sc4ccccc4c3n(CC(=O)NC3CCCCC3)c2=O)c1 -3.85%
Cc1c(NC(=O)c2ccc(-c3cccc([N+](=O)[O-])c3)o2)cccc1-c1nc2cc(Cl)ccc2o1 22.3%
Cn1c(=O)oc2cc(S(=O)(=O)NCCC(=O)Nc3ccc(F)cc3F)ccc21 17.4%
CCOC(=O)c1cc2c(=O)n3ccccc3nc2n(CCOC)c1=NC(=O)c1c(-c2ccccc2Cl)noc1C 5.06%
Cc1cc(OCC(=O)Nc2ncn[nH]2)ccc1Cl 4.21%
Cc1ccc(S(=O)(=O)N(CC(=O)Nc2ccc3c(c2)OCO3)c2cc(Cl)cc(Cl)c2)cc1 13.9% [at 11.5 µM, percent change from vehicle, -100% = no light]
CCN(CC)S(=O)(=O)c1ccc(OC)c(-n2cnnn2)c1 2.69%
O=C(NCCC1=CCCCC1)c1ccc2c(c1)N(Cc1cccc(Cl)c1)C(=O)c1ccccc1S2=O (configuration not stated) -0.841%
CCCCC(=O)NC1CC(=O)N(c2ccc3c(c2)OCCO3)C1 (configuration not stated) -14.5%
COc1ccc(CNC(=O)Cn2c(=O)nc(-c3ccccc3)c3ccccc32)cc1OC -67.9%
CC(C)CCNC(=O)Cc1ccc(NC(=O)N2CCCCc3ccccc32)cc1 -0.61%
CC1=C(c2ccc(C)c(C)c2)S(=O)(=O)NC1=NCc1ccccc1Cl -2.91%
Cc1cc(C)c(NC(=O)c2sc3nc(C)cc(C)c3c2NC(=O)c2ccccc2)c(C)c1 -12.6%
CCOC(=O)c1c(C)[nH]c(C)c1S(=O)(=O)N1CCC(C(=O)Nc2cc(Cl)ccc2OC)CC1 -8.26%
CCOc1ccc(CCNC(=O)c2cn(C)c3ccc(S(=O)(=O)N4CCCCC4)cc3c2=O)cc1OCC 5.78%
COc1ccccc1C(=O)Nc1cccc(C(=O)OCc2cc(=O)n3cc(C)sc3n2)c1 -10.9%
CCc1nc2nc(C)c(NS(=O)(=O)c3ccc(C(C)(C)C)cc3)c(=O)n2[nH]1 -13.3%
O=C(CCn1cnc2ccccc2c1=O)NCc1ccccc1Cl 9.09% [at 11.5 µM, percent change from vehicle, -100% = no light]
O=C(CNC(=O)c1ccc(F)cc1)OCc1cc(=O)n2nc(C3CC3)sc2n1 -13.1%
COc1ccc(-c2nc(C)c(CCNS(=O)(=O)c3cc(Cl)ccc3Cl)s2)cc1 -23.6%
CCOC(=O)c1sc2ncn(CC(=O)Nc3ccc(OCC)cc3)c(=O)c2c1C -3.22%
CCc1nn2c(=O)cc(COC(=O)COc3ccc(OC)cc3)nc2s1 3.07%
CCC(=O)N1c2ccccc2CC1C(=O)NCCc1ccc(OC)c(OC)c1 (configuration not stated) -16.1%
